Read counts are not given, so values of variants with three or more changes are uncertain.
B1: LINE1-full (parent)
chain: UACGUAGGUGGUUUUCCCCUGAUAGUGCUAAGGGGGCCUGGAAGUUUGGACUGGGCAGAGCUCAACACAGCGUGGCAAAGUGGCUGUGGCUAGACUGCCUCUCUGGAUUCCUCGUCACUCAGCAGGGCAUCUCUGAGAGAAAUGCC

Variants of: B1
Experiment: self-cleavage, relative activity (ratio to wild type); higher = more cleavage; in vitro, sequencing; the parent is a self-cleaving ribozyme
Work on UACGUAGGCGGUUUUCCCCUGAUAGUGCUAAGGGGGCCUGGAAGUUUGGACUGGGCAGAGCACAACACAGCGUGGCAAAGUGGCUGUGGUUAGACUGCCUCUCUGGAUUCCUCGUCACUCAGCAGGGCAUCUCUGAGAGAAAUGCC [U9C U62A C90U] yielded a self-cleavage of 0.01. UACGUAGGUGGUUUUCCCCUGAUAGUGCUAAGGGGGCCUGGAAGUUUGGACUGGGCUGAGCUCAACGCAGCGUGGCAAAGUGGCUGUGGCUAGACUGCCUCUCUGGAUCCCUCGUCACUCAGCAGGGCAUCUCUGAGAGAAAUGCC [A57U A67G U109C] gave a self-cleavage of 0.07. For UACGUAGGUGGUUUUCCCCUGAUAGUGCUAAGGGGGCCCGGAAGUUAGGACUGGGCAGAGCUCAACACAGCGUGGCAAAGUGGCUGUGGCUAGACUGCCUCUCUGGAUUCCUCGUCACUCAGCAGGGCACCUCUGAGAGAAAUGCC [U39C U47A U130C], the self-cleavage was 1.13. In the case of UACGUAGGCGGUUUUCCCCUGAUAGUGCUAAGGGGGCCUGGAAGUUUGGACUGGGCAGAGCUCUACACAGCGUGGCAAAGUGGCUGUGGCUAGACUGCCUCUCUGGAUUCCUCGUCACUCAGCAGGGCAUCUCUGAGAGAAAAGCC [U9C A64U U143A], the self-cleavage is reported as 0.68. UACGUAGGUGGUUUUCCCCUGAUAGUGCUAAGGGGGCCUGGAAGUUUGGACUGGGCAGAGCUCGACACAGCGUGGCUGAGUGGCUGUGGCUAGACUGCCUCUCUGGAUUCCUCGUCACUCAGCAGGGCAUCUCUGAGAGAAAUGCC [A64G A77U A78G] gave a self-cleavage of 0.52. Work on UACGUAGGUGGUUUUCCCCUGAUAGUGCUAAGGGGGCCUGGAAGUUUGGACUGGGCAGAGCUCAACCCAGCGUGGCAAAGUGGCUGUGGCUAGACUGCCCCACUGGAUCCCUUGUCACUCAGCAGGGCAUCUCUGAGAGAAAUGCC [A67C U100C U102A U109C C113U] yielded a self-cleavage of 0. UACGUAGGUGGUUUUCCCCUGAUAGUGCUAAGGGGGCCUGGAAGUUUGGACUGAGCAGAGCCCAACACAGCGUGGCAAAGUGGCUGUGGCUAGACUGCCUCUCUGGAUUCCUCGUCACUCAGCAGGGCAUCUCUGAGAGAUAUGCC [G54A U62C A141U] gave a self-cleavage of 0.01. For UACGAAGGUGGUUUUCCCCUGAUAGUGCUAAGGGGGCCUGGAAGUUUGGACUGGGCAGAGCUCAACACAGCGCGGCAAAGUGGCUGUGGCUAGACAGCCUCUCUGGAUUUCUCGUCACUCAGCAGGGCACCUCUGAGAGAAAUGCC [U5A U73C U96A C110U U130C], the self-cleavage was 0.1. UACGUAGGUGGUCUUCCCCUGAUGGUGCUAAGGGGGCCUGGAAGUUUGGUCUGGGCAGAGCUCAACACAGCGUGGCAAAGUGGCUGUGGCUAGACUGCCUCUCUGGAUUCCUCGACACUCAGCAGGGCAUCUCUGAGAGAAAUGCC [U13C A24G A50U U115A] gave a self-cleavage of 0.52. UACGUAGGUGGUUUUCCCCUGAUAGUGCUAAGGGGGCCUGGAAGUUUGGACUGGGCAGAGCUCAACACAGCGCAGCGAAGUGGCUGUGGCUAGACUGCCUCUCUGGAUUCCUCGUCACUCAGCAGGGCAUCUCUGAGAGAAAUGCC [U73C G74A A77G] showed a self-cleavage of 2.11. For UACGUAGGUGGUUCUCCCCUGAUAGUGCUAAGGGGGCCUGGAAGUUUGGACUGGGCAGAGCUCAACACAGCGUGGCAAAGUGGCUGUGGCUAGACUGCCACUCUGGAUUCCUCGUCACUCAGCAGGGCACCUCUGAGAGAAAUGCC [U14C U100A U130C], the self-cleavage was 1.01. UACGUAGGUGGUUUUCCCCUGAUAGUGCUAAGGGGGGCUGGAAGUUUGGACUGGGCAGAGCUCAACACUGCGAGGCAAAGUGGCUAUGGCUAGACUGCCUCUCUGGAUUCCUCGUCACUCAGCAGGGCAUCUCUGAGAGAAAUGCC [C37G A69U U73A G86A] showed a self-cleavage of 0.02. For UACGUAGGUGGUUUUCCCCAGAUAGUGCUAAGGGGGCCUGGAAGUUGGGACUGGGCAGAGCUCAGCACAGCGUGGCAAAGUGGCUGUGGCUAGACUGCCUCUCUGGAUUCCUCGUCACUCAGCAGGGCAUCCCUGAGAGAAAUGCC [U20A U47G A65G U132C], the self-cleavage was 0.08. UACGUAGGUGGUUUUCCCCUGAUAGUGCUAAGGGGGCCUGGAAGUUUGGACUGGGCAGAGCUCAACACAGCAUGGCAAAGUGGCUGUGGCUAGACUGCCUCUCUGGAUUCCUCGUCACUCAGCAGGGCAUCUCCGAGGGAAAUGCC [G72A U134C A138G] showed a self-cleavage of 1.75. For UUCGUAGGUGGUUUUCCCCCGAUAGUACUAAGGGGGCCUGGAAGUUUGGGCUGGGCAGAGCUCAACACAGCGUGGCAGAGUGGCUGUGGCUAGACUGCCUCUCUGGAUCCCUCGUCACUCAGCAGGGCAUCUCUGAGAGAAAUGCC [A2U U20C G27A A50G A78G U109C], the self-cleavage was 0. Work on UACGUAGGUGGUUUUCCCCUGAUAGUGCUAAGGGGGCCUGGAAGUUUGGACUGGGCAGAGCUCAACACAGCGUGGCAAAGUGGCCGUGGCUAGACUGCCUCUCUGAAUUCCUCGUCACUCAGCAGGGCAUCUCUGGGAGAAAUGCC [U85C G106A A136G] yielded a self-cleavage of 0.26. With UACGUAGGUGGUUUUCCCCUGAUAGUGCUAAGGGGGCCUGGAAGUUUGGACUGGGCAGAGCUCAGCACGGCGUGGCAAAGUGGCUGUGGCUAGACUGCCUCUCUGGAUUCCUCGUCACUCAGCAGGGCAUCUCCGAGAGAAAUGCC [A65G A69G U134C] the self-cleavage was 0.26. UACGUGGGUGGUUUUCCCCUGGUAGUGCUAAGGGGGCCUGGAAGUUUGGACUGGGCAGAGCUCAACACAGCGUGGCAAAGUGGCUGUGGCUAGACUGCCUCUCUGGAUUCCUCGUCACUCAGCAGGGCAUCCCCGAGAGAAAUGCC [A6G A22G U132C U134C] showed a self-cleavage of 0. Variant UACGUAGGUGGUUUUCCCCUGAUAGCGCUAAGGGGGCCUGGAAGUUUGGACUGGGCAGAGCUCAACACAGCGUGGCAAAGUGGCUGUGGUUGGACUGCCUCUCUGGAUUCCUCGUCACUCAGCAGGGCAUCUCUGAGAGAAAUGCC [U26C C90U A92G] has a self-cleavage of 0.03. UACGUAGGUGGUUUUCCCCUGAUAGUGCUAAGGGGGCCUGGAGGUUUGGACUGAGCAGAGCUCAACACAGCGUGGCAAAGUGGCUGUGGCUAGACUGCCUCUCUGGUUUCCUCGUCACUCAGCAGGGCAUCUCUGAGAGAAACGCC [A43G G54A A107U U143C] showed a self-cleavage of 0.21. In the case of UACGUAGGUGGUUUUCCCCUGAUAGUGCUAAGGGGGCCUGGAAGUUUGGACUGGGCAGAGCCCAACACAGCGUGGCAAGGUGGCUGCGGCUAGACUGCCUCUCUGGAUUCCUCGUCACUCAGCAGGGCAUCUCUGAGAGAAAUGCC [U62C A79G U87C], the self-cleavage is reported as 0.77. Work on UACGUGGGUGGUUUUCCCCUGAUAGUGCUAAGGGGGCUUGGGAGUUUGGACUGGGCAGAGCUCAACACAGCGUGGCAAAGUGGCUGCGGCUAGACUGCCUCUCUGGAUUCCUCGUCACUCAGCAGGGCAUCUCUGAGAGUAAUGCC [A6G C38U A42G U87C A140U] yielded a self-cleavage of 0.28. UACGUAGGAGGUUUUCCCCUGAUAGUGCUAAGGGGGCCUGGGAGUUUGGACUGGGCAGAGCUCAACACAGCGUGGCAAAGUGGCUGUGGCUAGACCGCCUCUCUGGAUUCCUCGUCACUCAGCAGGGCAUCUCUGAGAGAAAUGCC [U9A A42G U96C] showed a self-cleavage of 0. UACGUAGGUGGUUUUCCCCUGAUAGUGCUAAGGGGGCCUGGAAGUUUGGACUGGGCAGAGCUCAGCACAGCGUGGCAAAGUGGCUGUGGCUAGACUGCCUCUCUGGACUCCUCGUCACUCAGUAGGGCAUCUCUGAGAGAGAUGCC [A65G U108C C123U A141G] gave a self-cleavage of 0.04. Variant UACGUAGGUGGUUUUCCCCUGGUAGUGCUAAGGGGGCCUGGAAGUUUGGACUGGGCAGAGCUCAACACAGCGUGGCAUAGUGGCUGUGGCUAGACUGCCUCUCUGGAUUCCUCGUCACUCAGCGGGGCAUCUCUGAGAGAAAUGCC [A22G A78U A124G] has a self-cleavage of 2. Work on UACGUAGGUGGUUUUCCCCUGAUAGUGCUAAGGGGGCCUGGAAGUUUGGUCUGGGCAGAGCUCAACACAGCGUGGCAAAGUGGCUGAGGCUAGACUGCCUCCCUGGAUUCCUCGUCACUCAGCAGGGCAUCUCUGAGAGAAAUGCC [A50U U87A U102C] yielded a self-cleavage of 0.07. Variant UACGUAGGUGGUUUUUCCCUGAUAGUGCCAAGGGGGCCUGGAAGUUUGGACUGGGCAGAGCUCAACACUGCGUGGCAAAGUGGCUGUGGCCAGACUGCCUCUCUGGAUUCCUCGUCACUCAGCAGGGCAUCUCUGAGAGAAAUGCC [C16U U29C A69U U91C] has a self-cleavage of 0.06. UACGUAGGUGGUUUUCCCCUGAUAGUGCUAAGGGGGCCUGGAAGUUUGGACUGGGCAGAGCUCAACACAGCGUGGCAAAGUGGCUGUGGCUAGACUGCCUCUCUGGAUUCCUCGUCACUCAGCAGGGCAUCUCAGAGAGGGAUGCC [U134A A140G A141G] showed a self-cleavage of 0.54. With UACGUAGGUGGUUUUCCCCUGAUAGUGCUAAGGGGGCCUGGAAGUUUGGACUGGGCAGAGCUUAACACAGCGCGGCAAAGUGGCUGUGGCUAGACUGCCUCUCUGGAUUCCUCGCCACUCAGCAGGGCAUCUCUGAGAGAAAUGCC [C63U U73C U115C] the self-cleavage was 0.71. UACGUAGGUGGUUUUCCCCUGAUAGUGCUAAGGGGGCCUGGGAGUCCGGACUGGGCAGAGCUCAACACAGCGUGGCAAAGUGGCUGUGGCUAGACUGCCUCUCUGGAUUCCUCGUCACUCAGCAGGGCAUCUCUGAGAGAAAUGCC [A42G U46C U47C] gave a self-cleavage of 1.04. UACGUAGGUGGUUUUCCCCUGGUAGUGCUAAGGGGGCCUGGAAGUUUGGACUGGGCAGAGCUCAACACAGCGUGGCAAAGAGGCUGUGGCUAGACUGCCUCUCUGGAUUCCCCGUCACUCAGCAGGGCAUCUCUGAGAGAAAUGCC [A22G U81A U112C] showed a self-cleavage of 2.01. UACGUAGGUGGUCUUCCCCUGAUAGAGCUAAGGGGGCCUGGAAGUUUGGACUGGGCAGAGCUCAACACAGCGUGGCAAAGUGGCUGUGGCUAGACUGCCUCUCUGGAAUCCCCGUCACUCAGCAGGGCAUCUCUGAGAGAAAUGCC [U13C U26A U108A U112C] showed a self-cleavage of 0.35. UACGUAGGUGGUUUUCCCCUGAUAGUGCUAAGGGGGCCUGGAAGUUUGGACUGGGCUGGGCUCAACACAGCGUGGCAAAGUGGCUGUGGCUAGACUGCCUCUCUGGAUUCCUCGUCACUCUGCAGGGCAUCUCUGAGAGAAAUGCC [A57U A59G A121U] showed a self-cleavage of 0.06. UACGUAGGUGGUUUUCACCUGAUAGUGCUAAGGGGGCCUGGAGGUUUGGACUGGGCAGAGCUCAACACAGCGUGGCAAAGUGGCUGUGGCUAGACUGCCUCGCUGGAUUCCUCGUCACUCAGCAGGGCAUCACUGAGAGAAAUGCC [C17A A43G U102G U132A] gave a self-cleavage of 0.71. In the case of UACGUAGGUGGUUUCCCCCUGAUAGUGCUAAGGGGGCCUGGAAGUUUGGACUGGGCAGAGCUCAGCACAGCGUGGCAAAGUGGCUGUGGCUAGACUGCCUCUCUGGAUUCCUCGUCACUCAGCAGGGCAUCUCUGAGAGGAAUGCC [U15C A65G A140G], the self-cleavage is reported as 0. Variant UACGUAGGUGGUUUUCCCCUGAUAGUGCUAAGGGGGCCUGGAAGUUUGGACUGGGCAGAGCUCAACACAGCGGGGCAAAGUGGCUGUGGCUAGACUGCCUCUCUGGAUUCCUCGACACUCAGCAGGGCAUCUCUGAGAGGAAUGCU [U73G U115A A140G C146U] has a self-cleavage of 1.49. UACGUAGGUGGUUUUCCCCUGAUAGUGCUAAGGGGGCCUGGAAGUUUGGACUGGGCUGAGCUCAACACAGCGUGGCAAAGUGGCUGUGGCAAGACUGCCUCUCUGGAUUCCUCGUCACUCAGCAGGGCAUCUCUGAGAGAAACGCC [A57U U91A U143C] showed a self-cleavage of 0.05. UACGUAGGUGGUUUUCCCCCGGUAGUGCUAAGGGGGCCUGGAAGUUUGGACUGGGCAGAGCUCAACACAGCGUGGCAAAGUGGCUGUGGCUAGACUGCCUCUCUGGAUUCCUCGCCACUCAGCAGGGCAUCUCUGAGAGAAAUGCC [U20C A22G U115C] showed a self-cleavage of 1.08. For UACGUAGGUGGUUUCCCCCUGAUAGUGCUAUGGGGGCCCGGAAGUUUGGUCUGGGCAGAGCUCAACACAGCGUGGCAAAGUGGCUGUGGCUAGACUGCCUCUCUGGAUUCCUCGUCACUCAGCAGGGCAUCUCUGAGAGAAAUGCC [U15C A31U U39C A50U], the self-cleavage was 0.44.

Reference: the RNAGym collection of RNA variant scans (doi:10.7554/elife.90254)
